{"source": "the supplement of paper PMC8728848", "assay_in_all_cases": "glycan array binding signal (z-score within array); higher = stronger binding", "details_in_all_cases": "glycan notation: IUPAC condensed, linker removed", "key": {"Fuc(a1-2)Gal": {"target": "Fuc(a1-2)Gal", "summary_of_the_method": "(§1)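 Glycan array data were curated from 3228 arrays in the Consortium for Functional Glycomics database and kept only where the protein sequence was available. Glycan names were converted to IUPAC-condensed notation, and columns mapping to the same glycan were averaged. The binding signal is a within-array Z-score, averaged across arrays of the same protein sequence at different concentrations or buffers and across linkers. Negative Z-scores can be read as non-binding.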"}, "Fuc(a1-2)Gal(b1-3)GalNAc": {"target": "Fuc(a1-2)Gal(b1-3)GalNAc", "summary_of_the_method": "as §1"}, "[1]": {"target": "Fuc(a1-2)Gal(b1-3)GalNAc(a1-3)[Fuc(a1-2)]Gal(b1-4)Glc", "summary_of_the_method": "as §1"}, "[2]": {"target": "Fuc(a1-2)Gal(b1-3)GalNAc(a1-3)[Fuc(a1-2)]Gal(b1-4)GlcNAc", "summary_of_the_method": "as §1"}, "[3]": {"target": "Fuc(a1-2)Gal(b1-3)GalNAc(b1-3)Gal", "summary_of_the_method": "as §1"}, "[4]": {"target": "Fuc(a1-2)Gal(b1-3)GalNAc(b1-3)Gal(a1-4)Gal(b1-4)Glc", "summary_of_the_method": "as §1"}, "[5]": {"target": "Fuc(a1-2)Gal(b1-3)GalNAc(b1-4)[Neu5Ac(a2-3)]Gal(b1-4)Glc", "summary_of_the_method": "as §1"}, "Fuc(a1-2)Gal(b1-3)GlcNAc": {"target": "Fuc(a1-2)Gal(b1-3)GlcNAc", "summary_of_the_method": "as §1"}, "[6]": {"target": "Fuc(a1-2)Gal(b1-3)GlcNAc(b1-2)Man(a1-3)[Fuc(a1-2)Gal(b1-3)GlcNAc(b1-2)Man(a1-6)]Man(b1-4)GlcNAc(b1-4)GlcNAc", "summary_of_the_method": "as §1"}, "[7]": {"target": "Fuc(a1-2)Gal(b1-3)GlcNAc(b1-2)Man(a1-3)[Fuc(a1-2)Gal(b1-3)GlcNAc(b1-2)Man(a1-6)]Man(b1-4)GlcNAc(b1-4)[Fuc(a1-6)]GlcNAc", "summary_of_the_method": "as §1"}, "[8]": {"target": "Fuc(a1-2)Gal(b1-3)GlcNAc(b1-3)Gal(b1-4)Glc", "summary_of_the_method": "as §1"}, "[9]": {"target": "Fuc(a1-2)Gal(b1-3)GlcNAc(b1-3)GalNAc", "summary_of_the_method": "as §1"}, "[10]": {"target": "Fuc(a1-2)Gal(b1-3)GlcNAc(b1-3)[Fuc(a1-2)Gal(b1-3)GlcNAc(b1-6)]GalNAc", "summary_of_the_method": "as §1"}, "[11]": {"target": "Fuc(a1-2)Gal(b1-3)GlcNAc(b1-3)[Gal(b1-4)GlcNAc(b1-6)]Gal(b1-4)Glc", "summary_of_the_method": "as §1"}, "[12]": {"target": "Fuc(a1-2)Gal(b1-3)GlcNAc(b1-3)[Neu5Ac(a2-6)Gal(b1-4)GlcNAc(b1-6)]Gal(b1-4)Glc", "summary_of_the_method": "as §1"}, "[13]": {"target": "Fuc(a1-2)Gal(b1-3)GlcNAc6S", "summary_of_the_method": "as §1"}, "[14]": {"target": "Fuc(a1-2)Gal(b1-3)[Fuc(a1-4)]GlcNAc", "summary_of_the_method": "as §1"}, "[15]": {"target": "Fuc(a1-2)Gal(b1-3)[Fuc(a1-4)]GlcNAc(b1-2)Man(a1-3)[Fuc(a1-2)Gal(b1-3)[Fuc(a1-4)]GlcNAc(b1-2)Man(a1-3)]Man(b1-4)GlcNAc(b1-4)GlcNAc", "summary_of_the_method": "as §1"}, "[16]": {"target": "Fuc(a1-2)Gal(b1-3)[Fuc(a1-4)]GlcNAc(b1-2)Man(a1-3)[Fuc(a1-2)Gal(b1-3)[Fuc(a1-4)]GlcNAc(b1-2)Man(a1-6)]Man(b1-4)GlcNAc(b1-4)[Fuc(a1-6)]GlcNAc(b1-4)[Fuc(a1-6)]GlcNAc", "summary_of_the_method": "as §1"}, "[17]": {"target": "Fuc(a1-2)Gal(b1-3)[Fuc(a1-4)]GlcNAc(b1-3)[Fuc(a1-3)[Gal(b1-4)]GlcNAc(b1-6)]Gal(b1-4)Glc", "summary_of_the_method": "as §1"}, "[18]": {"target": "Fuc(a1-2)Gal(b1-3)[Fuc(a1-4)]GlcNAc(b1-3)[Gal(b1-4)GlcNAc(b1-6)]Gal(b1-4)Glc", "summary_of_the_method": "as §1"}, "[19]": {"target": "Fuc(a1-2)Gal(b1-4)Fuc(a1-3)]GlcNAc(b1-2)Man(a1-3)[Fuc(a1-2)Gal(b1-4)[Fuc(a1-3)]GlcNAc(b1-2)Man(a1-6)]Man(b1-4)GlcNAc(b1-4)GlcNAc", "summary_of_the_method": "as §1"}, "Fuc(a1-2)Gal(b1-4)Glc": {"target": "Fuc(a1-2)Gal(b1-4)Glc", "summary_of_the_method": "as §1"}, "Fuc(a1-2)Gal(b1-4)Glc6S": {"target": "Fuc(a1-2)Gal(b1-4)Glc6S", "summary_of_the_method": "as §1"}, "Fuc(a1-2)Gal(b1-4)GlcNAc": {"target": "Fuc(a1-2)Gal(b1-4)GlcNAc", "summary_of_the_method": "as §1"}, "[20]": {"target": "Fuc(a1-2)Gal(b1-4)GlcNAc(b1-2)Man", "summary_of_the_method": "as §1"}, "[21]": {"target": "Fuc(a1-2)Gal(b1-4)GlcNAc(b1-2)Man(a1-3)[Fuc(a1-2)Gal(b1-4)GlcNAc(b1-2)Man(a1-6)]Man(b1-4)GlcNAc(b1-4)GlcNAc", "summary_of_the_method": "as §1"}, "[22]": {"target": "Fuc(a1-2)Gal(b1-4)GlcNAc(b1-2)Man(a1-3)[Fuc(a1-2)Gal(b1-4)GlcNAc(b1-2)Man(a1-6)]Man(b1-4)GlcNAc(b1-4)[Fuc(a1-6)]GlcNAc", "summary_of_the_method": "as §1"}, "[23]": {"target": "Fuc(a1-2)Gal(b1-4)GlcNAc(b1-2)[Fuc(a1-2)Gal(b1-4)GlcNAc(b1-4)]Man(a1-3)[Fuc(a1-2)Gal(b1-4)GlcNAc(b1-2)Man(a1-6)]Man(b1-4)GlcNAc(b1-4)GlcNAc", "summary_of_the_method": "as §1"}, "[24]": {"target": "Fuc(a1-2)Gal(b1-4)GlcNAc(b1-3)Gal(b1-4)GlcNAc", "summary_of_the_method": "as §1"}, "[25]": {"target": "Fuc(a1-2)Gal(b1-4)GlcNAc(b1-3)Gal(b1-4)GlcNAc(b1-2)Man(a1-3)[Fuc(a1-2)Gal(b1-4)GlcNAc(b1-3)Gal(b1-4)GlcNAc(b1-2)Man(a1-6)]Man(b1-4)GlcNAc(b1-4)GlcNAc", "summary_of_the_method": "as §1"}, "[26]": {"target": "Fuc(a1-2)Gal(b1-4)GlcNAc(b1-3)Gal(b1-4)GlcNAc(b1-3)Gal(b1-4)GlcNAc", "summary_of_the_method": "as §1"}, "[27]": {"target": "Fuc(a1-2)Gal(b1-4)GlcNAc(b1-3)GalNAc", "summary_of_the_method": "as §1"}, "[28]": {"target": "Fuc(a1-2)Gal(b1-4)GlcNAc(b1-3)[Fuc(a1-2)Gal(b1-4)GlcNAc(b1-6)]GalNAc", "summary_of_the_method": "as §1"}, "[29]": {"target": "Fuc(a1-2)Gal(b1-4)GlcNAc(b1-3)[Fuc(a1-3)[Gal(b1-4)]GlcNAc(b1-6)]Gal(b1-4)Glc", "summary_of_the_method": "as §1"}, "[30]": {"target": "Fuc(a1-2)Gal(b1-4)GlcNAc(b1-6)GalNAc", "summary_of_the_method": "as §1"}, "[31]": {"target": "Fuc(a1-2)Gal(b1-4)GlcNAc6S", "summary_of_the_method": "as §1"}}, "note": "Some of the results follow."}
{"binder": "Epa1 (Candida glabrata) (protein) MGSSHHHHHHSSGLVPRGSHMTSSNDISLASKDPTTFPLGCSPDITTPKKGLSMELYSYDFRKKGSYPCWDAAYLDPNYPRTGYKSHRLLAKVDGVTGNINFYYHATKGCTPQLGHLPASYNYPKPLTMTNFTMLLYGYFRPKVTGFHTFTISADDLLFVNFGAGNAFDCCRRDSSADHFGNYQAYAIWGSKTAKDELTVHLDAGVYYPIRLFYNNREYDGALSFTFKTESNENTVSDFSEYFFSLDDTEEGCPGLISYD", "values": [{"measurement": "glycan array binding signal (z-score)", "setting": "Fuc(a1-2)Gal", "result": -0.506}, {"measurement": "glycan array binding signal (z-score)", "setting": "Fuc(a1-2)Gal(b1-3)GalNAc", "result": -0.25}, {"measurement": "glycan array binding signal (z-score)", "setting": "[1]", "result": -0.302}, {"measurement": "glycan array binding signal (z-score)", "setting": "[2]", "result": -0.18}, {"measurement": "glycan array binding signal (z-score)", "setting": "[3]", "result": -0.273}, {"measurement": "glycan array binding signal (z-score)", "setting": "[4]", "result": -0.291}, {"measurement": "glycan array binding signal (z-score)", "setting": "[5]", "result": -0.07}, {"measurement": "glycan array binding signal (z-score)", "setting": "Fuc(a1-2)Gal(b1-3)GlcNAc", "result": -0.312}, {"measurement": "glycan array binding signal (z-score)", "setting": "[6]", "result": -0.313}, {"measurement": "glycan array binding signal (z-score)", "setting": "[7]", "result": -0.325}, {"measurement": "glycan array binding signal (z-score)", "setting": "[8]", "result": -0.328}, {"measurement": "glycan array binding signal (z-score)", "setting": "[9]", "result": -0.312}, {"measurement": "glycan array binding signal (z-score)", "setting": "[10]", "result": -0.223}, {"measurement": "glycan array binding signal (z-score)", "setting": "[11]", "result": 0.361}, {"measurement": "glycan array binding signal (z-score)", "setting": "[12]", "result": -0.234}, {"measurement": "glycan array binding signal (z-score)", "setting": "[13]", "result": -0.247}, {"measurement": "glycan array binding signal (z-score)", "setting": "[14]", "result": -0.335}, {"measurement": "glycan array binding signal (z-score)", "setting": "[15]", "result": -0.22}, {"measurement": "glycan array binding signal (z-score)", "setting": "[16]", "result": -0.286}, {"measurement": "glycan array binding signal (z-score)", "setting": "[17]", "result": -0.252}, {"measurement": "glycan array binding signal (z-score)", "setting": "[18]", "result": -0.074}, {"measurement": "glycan array binding signal (z-score)", "setting": "[19]", "result": -0.162}, {"measurement": "glycan array binding signal (z-score)", "setting": "Fuc(a1-2)Gal(b1-4)Glc", "result": -0.282}, {"measurement": "glycan array binding signal (z-score)", "setting": "Fuc(a1-2)Gal(b1-4)Glc6S", "result": -0.215}, {"measurement": "glycan array binding signal (z-score)", "setting": "Fuc(a1-2)Gal(b1-4)GlcNAc", "result": -0.288}, {"measurement": "glycan array binding signal (z-score)", "setting": "[20]", "result": -0.292}, {"measurement": "glycan array binding signal (z-score)", "setting": "[21]", "result": -0.274}, {"measurement": "glycan array binding signal (z-score)", "setting": "[22]", "result": -0.2}, {"measurement": "glycan array binding signal (z-score)", "setting": "[23]", "result": -0.323}, {"measurement": "glycan array binding signal (z-score)", "setting": "[24]", "result": -0.343}, {"measurement": "glycan array binding signal (z-score)", "setting": "[25]", "result": -0.283}, {"measurement": "glycan array binding signal (z-score)", "setting": "[26]", "result": -0.394}, {"measurement": "glycan array binding signal (z-score)", "setting": "[27]", "result": -0.319}, {"measurement": "glycan array binding signal (z-score)", "setting": "[28]", "result": -0.181}, {"measurement": "glycan array binding signal (z-score)", "setting": "[29]", "result": -0.226}, {"measurement": "glycan array binding signal (z-score)", "setting": "[30]", "result": -0.195}, {"measurement": "glycan array binding signal (z-score)", "setting": "[31]", "result": -0.166}]}
